# Measured values reported in article PMC4336329 (PLoS ONE, 2015).
# Out of some 310,000 compounds screened, about 2,200 (0.71%) showed an effect of 50% or more. Effects have a minus sign here. This is one part of the list.
# Target: human ether-à-go-go-related gene (hERG) potassium channel (human, UniProt Q12809)
# Test: primary screen, population patch clamp on CHO cells stably expressing hERG
# Sequence of human ether-à-go-go-related gene (hERG) potassium channel (Q12809 whole entry, looked up): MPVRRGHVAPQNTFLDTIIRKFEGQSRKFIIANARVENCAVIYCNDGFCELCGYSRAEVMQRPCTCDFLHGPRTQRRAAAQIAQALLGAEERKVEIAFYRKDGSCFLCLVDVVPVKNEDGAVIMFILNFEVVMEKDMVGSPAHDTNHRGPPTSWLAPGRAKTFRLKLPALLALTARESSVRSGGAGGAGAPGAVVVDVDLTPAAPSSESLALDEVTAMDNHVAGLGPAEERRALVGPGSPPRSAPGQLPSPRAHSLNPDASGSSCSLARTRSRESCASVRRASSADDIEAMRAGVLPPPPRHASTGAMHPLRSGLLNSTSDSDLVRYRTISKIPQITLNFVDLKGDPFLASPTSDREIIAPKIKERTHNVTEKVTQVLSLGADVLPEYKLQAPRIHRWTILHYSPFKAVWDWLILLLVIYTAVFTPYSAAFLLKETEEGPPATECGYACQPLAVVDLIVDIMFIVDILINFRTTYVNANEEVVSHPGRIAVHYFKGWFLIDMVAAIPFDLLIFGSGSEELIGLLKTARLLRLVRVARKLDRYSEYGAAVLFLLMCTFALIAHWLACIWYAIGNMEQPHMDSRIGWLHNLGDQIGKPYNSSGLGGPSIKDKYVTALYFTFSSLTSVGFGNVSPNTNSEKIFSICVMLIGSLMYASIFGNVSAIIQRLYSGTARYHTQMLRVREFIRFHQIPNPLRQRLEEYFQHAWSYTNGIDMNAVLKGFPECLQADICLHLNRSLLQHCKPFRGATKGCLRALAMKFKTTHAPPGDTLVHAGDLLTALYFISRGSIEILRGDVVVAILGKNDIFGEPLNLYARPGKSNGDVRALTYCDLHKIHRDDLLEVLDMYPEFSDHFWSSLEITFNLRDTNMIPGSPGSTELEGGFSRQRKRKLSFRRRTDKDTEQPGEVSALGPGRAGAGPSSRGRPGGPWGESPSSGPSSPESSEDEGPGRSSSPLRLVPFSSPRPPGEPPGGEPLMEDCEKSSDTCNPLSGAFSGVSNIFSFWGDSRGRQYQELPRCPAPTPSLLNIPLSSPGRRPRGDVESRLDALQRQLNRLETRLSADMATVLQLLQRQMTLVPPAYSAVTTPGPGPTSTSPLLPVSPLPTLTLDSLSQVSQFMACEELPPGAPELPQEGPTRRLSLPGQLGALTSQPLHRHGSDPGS
row,Structure (SMILES),"hERG current change (%, negative = inhibition) at 1uM"
1,c1ccc(-c2nnc(-c3ccccc3)nn2)cc1,10.5%
2,CC1=C(C(=O)N(C)CCC#N)C2(CCCCC2)OC1=O,-0.549%
3,COCC(C)NC(=S)N1CCN(c2ccccc2Cl)CC1 (centres unmarked),8.29%
4,Cc1cccc(OP(N)(=O)Oc2cccc(C)c2C)c1C,8.32%
5,CC1(C)Cc2cccc(OCC(=O)NCc3cccs3)c2O1,8.47%
6,Cc1onc(-c2ccccc2Cl)c1C(=O)Nc1ccc(Cl)cn1,12.4%
7,COc1ccc2c(Cl)c(-c3nnc4n3CCCCC4)sc2c1,-7.35%
8,CCc1ccc2[nH]c(=O)c(CN(Cc3ccccc3)C(=O)Nc3ccccc3OC)cc2c1,8.18%
9,Cc1nc2sccn2c(=O)c1S(=O)(=O)Nc1ccc(N2CCN(C)CC2)cc1,21.4%
10,Cc1cc(C)nc(-n2nc(C)cc2NC(=O)CN2CCCC(C)C2)n1 (centres unmarked),-12.1%
11,CN(c1ccc(OCC(=O)NCc2cccnc2)cc1)S(=O)(=O)c1ccc(Cl)cc1,-4.28%
12,Clc1cccc(Cl)c1CSc1nnc2ccccn12,9.86%
13,N#Cc1c(-c2ccccc2)nc(SCc2nc(N)nc(N3CCCCC3)n2)[nH]c1=O,3.75%
14,COc1ccc(CC2(CO)CCN(CC3=CC[C@H]4C[C@@H]3C4(C)C)CC2)cc1,-6.02%
15,CC(=O)c1ccc(Sc2nnnn2-c2ccccc2)c([N+](=O)[O-])c1,13.7%
16,O=C(CCN1CCOCC1)NNC(=O)/C(=C/c1ccccc1)NC(=O)c1ccccc1,5.72%
17,Cc1ccc(S(=O)(=O)N/N=C/c2cnn(C)c2C)cc1,7.25%
18,N#Cc1c(C(F)(F)F)cc(-c2ccc(Cl)c(Cl)c2)nc1SCCN1CCOCC1,11.6%
19,COc1cccc(CNC(=O)CCC2CCCN(Cc3cc4ccccc4o3)C2)c1 (centres unmarked),-34.3%
20,CCCc1[nH]nc2c1C(c1ccc(OC(=O)c3ccco3)cc1)C(C#N)=C(N)O2 (centres unmarked),-28.2%
21,O=C(NCCC1=CCCCC1)c1ccc(-n2cncn2)c([N+](=O)[O-])c1,0.601%
22,Cn1c(=O)cc(N2CCc3ccccc32)[nH]c1=O,16.1%
23,CCC(=Nc1ccccc1O)C1=C(O)CC(c2ccccc2)CC1=O (centres unmarked),1.41%

row,Structure (SMILES),"hERG current change (%, negative = inhibition) at 1uM"
1,Cc1ccc(OCc2ccccc2Br)c([N+](=O)[O-])n1,22.7%
2,Cc1ccccc1N1C(=O)C2C3C=CC(C2C1=O)N(C)C3=O (centres unmarked),1.77%
3,Fc1ccc(NC(=S)NCc2ccc3c(c2)OCO3)cc1,6.76%
4,Oc1ccc(N2Cc3ccccc3C2)cc1,13.7%
5,COc1nc(NCCO)nc(Nc2cc(Cl)ccc2OC)n1,12.9%
6,CCn1c(SCC(=O)Nc2sc(C)c(C)c2C#N)nnc1C(C)C,9.07%
7,O=C(Cc1ccccc1[N+](=O)[O-])NC1CC2CCC1C2 (centres unmarked),15.6%
8,COc1cc(C(=O)N2CCN(c3ccccc3Cl)CC2)ccc1OCC(=O)N1CCOCC1,8.37%
9,O=S(=O)(N/N=C1\CC(c2ccccc2)Oc2ccccc21)c1ccccc1 (centres unmarked),2.1%
10,Cc1nn(-c2ccc(Cl)cc2Cl)c(C)c1C(=O)O,11.4%
11,COc1ccc(NC(C)=O)cc1NC(=O)CN1CCN(C(=O)c2ccco2)CC1,11.4%
12,CN(c1ccccc1)S(=O)(=O)c1ccc(Cl)c(C(=O)Nc2ccncc2)c1,-1.16%
13,CCS(=O)(=O)N1CCC(C(=O)Oc2ccccc2Br)CC1,11.6%
14,CC(OC(=O)c1cccs1)C(=O)NCC1CCCO1 (centres unmarked),-4.24%
15,CSCCCN1CCCC(CO)(Cc2ccccc2F)C1 (centres unmarked),4.04%
16,CCCCCCC(=O)Nc1c2c(nc3ccccc13)N(C)CC2,-30.9%
17,CSc1ccc(Cl)c(C(=O)OCC(=O)NC2CC2)c1,13.1%
18,FC(F)Oc1ccccc1/C=N/n1cnc2ccccc21,19%
19,CCCCNC(=O)Nc1ccccc1C(=O)NCCC,14.2%
20,O=C(Cn1nc(C(=O)O)c2ccccc2c1=O)Nc1cccc(Br)c1,14.5%
21,CCOc1ccccc1NC(=O)c1cc(-c2cc(OC)c(OC)c(OC)c2)nc2ccccc12,15.2%
22,CCOC(=O)c1c(C)[nH]c2cc(Br)c(OC)cc12,9.38%
23,Cc1cc(/C=C2\SC(=Nc3ccc(F)cc3)NC2=O)c(C)n1-c1ccc(S(N)(=O)=O)cc1,8.34%

row,Structure (SMILES),"hERG current change (%, negative = inhibition) at 1uM"
1,COC(=O)c1ccccc1NC(=O)c1c(O)c2c([nH]c1=O)CCCC2,7.98%
2,COc1ccc(/C(O)=C2/C(=O)C(=O)N(CCCN(C)C)C2c2ccccc2)cc1OC (centres unmarked),-5.52%
3,O=C(NCCN1CCOCC1)c1ccc(=O)oc1,15.6%
4,Cc1csc2nc(CCNS(=O)(=O)c3ccc4c(c3)OCCO4)cn12,5.26%
5,COc1cccc2sc3ccc(C#CC4(O)CCCCC4)cc3c(=O)c12,-0.207%
6,CCc1ccccc1NC(=O)NC1CC2CCC(C1)N2Cc1ccco1 (centres unmarked),18.3%
7,O=C(Nc1ccc(S(=O)(=O)N2CCCC2)cc1)c1ccc(OCC2CCCO2)cc1 (centres unmarked),8.86%
8,CC1(C)C2CC[C@]3(C)C(CC=C4[C@@H]5C[C@@](C)(CO)[C@@H](O)C[C@]5(C(=O)O)CC[C@]43C)[C@@]2(C)CC[C@@H]1O (some centres unmarked),14.8%
9,O=c1[nH]nc(Cc2ccc([N+](=O)[O-])cc2)c2ccccc12,-32.3%
10,Cc1[nH]ccc2c1[nH]c1cc(=O)ccc12,-4.88%
11,Cc1cccc(S(=O)(=O)N2CN(CC3CCCO3)c3nc4ccccc4nc32)c1 (centres unmarked),-4.07%
12,CC1CCN(c2c(NCc3ccc(C(=O)NCc4ccccc4)cc3)c(=O)c2=O)CC1,6.53%
13,COc1ccc(-n2cc(-c3ccc(OC(F)F)cc3)[n+]3c2CCCCC3)cc1.[Br-],-52.9%
14,COc1cc(/C=C(\C#N)C(=O)N2CCCCC2)ccc1O,12.9%
15,Cc1ccsc1C(=O)C1CCCN(Cc2cnn(C(C)C)c2)C1 (centres unmarked),-8.27%
16,O=c1c2ccccc2nc(-c2ccco2)n1-c1ccccc1,7.85%
17,Cc1cccc(CSc2nc3c(c(-c4cccs4)c2C#N)CN(C)CC3)c1,5.51%
18,CC(=O)N1C[C@H](O)C[C@H]1C(=O)O,-19%
19,Oc1ccc(C2C[C@H]3CC[C@@H]2C3)cc1O (some centres unmarked),15.3%
20,COc1cccc(CNC(=O)CCNS(=O)(=O)c2ccc3c(c2)CC(C)N3C(C)=O)c1 (centres unmarked),19.4%
21,COc1ccc(Nc2nc(NCC3CCCO3)c3ccccc3n2)c(OC)c1.Cl (centres unmarked),-48.8%
22,O=S(=O)(c1ccc(S(=O)(=O)N(Cc2ccccc2)Cc2ccco2)cc1)N1CCCC1,-0.0628%
23,CC1(c2ccccc2)NC(=O)N(CC(=O)Nc2ccccc2N2CCCCC2)C1=O (centres unmarked),-1.54%

row,Structure (SMILES),"hERG current change (%, negative = inhibition) at 1uM"
1,COc1ccc(CC(=O)NNC(=O)COc2ccc(Br)cc2C)cc1OC,6.92%
2,O=C(CN(CC1CCCO1)C(=O)Cn1nnc(-c2ccc(F)cc2)n1)NC1CCCCC1 (centres unmarked),5.91%
3,Cc1cc(C)n2c(-c3ccccc3Cl)nnc2n1,5.85%
4,O=C(c1ccccn1)N1N=C2/C(=C/c3ccccc3)CCCC2C1c1ccccc1 (centres unmarked),8.55%
5,COc1ccc2[nH]c(=O)c(CN(CCc3ccccc3)Cc3nnnn3CC3CCCO3)cc2c1 (centres unmarked),-16.6%
6,C=CCn1c(SCC(=O)NCc2ccco2)nnc1-c1ccc2ccccc2n1,1.95%
7,Cc1ccc(CCP(=O)(O)CN2CCOCC2)cn1,13.1%
8,Cc1cc(C)nc(N/N=C/c2ccc(N3CCOCC3)cc2)n1,8.63%
9,Cc1nn(C(=O)c2c([N+](=O)[O-])cnn2C)c(C)c1Cl,8.09%
10,Nc1cccc(C(=O)N/N=C/c2ccsc2)c1,11.3%
11,CCC(=O)c1ccc(OCC(=O)OCC(=O)c2cc(C)n(C)c2C)cc1,18.6%
12,CC(/C=C/c1ccc(N(C)C)cc1)=N\N=C1\NC(=O)CC(C(=O)Nc2ccccc2)S1 (centres unmarked),1.96%
13,CCN(c1ccccc1)S(=O)(=O)c1cccc(C(=O)NCC(c2cccs2)N2CCOCC2)c1 (centres unmarked),4.25%
14,CCc1nnc(NS(=O)(=O)c2ccc(NC(=O)c3cccc([N+](=O)[O-])c3)cc2)s1,13.1%
15,Cc1cc(C(=O)NNc2ccc(Cl)cc2)no1,7.36%
16,COC(=O)C(=O)/C=C(\O)c1ccc(C)cc1,4.97%
17,O=C(c1ccc2c(c1)OCO2)N(c1ccc(F)cc1)C1C=CS(=O)(=O)C1 (centres unmarked),7.66%
18,O=C(CSc1ncnc2c1cnn2-c1ccccc1)NC1CCCC1,5.33%
19,COCCNC(=O)c1ccccc1NC(=O)c1cc(OC)cc(OC)c1,8.23%
20,CC(C)(C)CN1CCN(Cc2c[nH]c3ccccc23)CC1CCO (centres unmarked),10.7%
